# Results from PubChem BioAssay AID1345082 (National Center for Advancing Translational Sciences (NCATS), 2018).
# The campaign covered roughly 94,000 compounds. About 4,000 (4.3%) were called active. Inconclusive results, whose numbers are uncertain, are shown with a selection of clear calls. The call rests on the fitted dose curve; in most records, active means well fitted inhibition curve with a large enough effect; inconclusive means small, poorly fitted or top-dose-only effect; inactive means no such curve, though single readings can be large or run the other way. Potencies of inconclusive entries are doubtful fits and often do not repeat.
# Assay: Cytotoxic Profiling in NIH 3T3 Cell Line of Diverse Libraries Using Quantitative High-Throughput Screening; further: nearly all actives have a fitted effect of over 55% in size
# Settings: NIH 3T3 viability, CellTiter-Glo ATP luminescence, 48-72 h; series mostly up to 96.7 µM; activity change, negative = cytotoxicity: at the top concentration
# In short: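 Cytotoxicity is measured as loss of cellular ATP: NIH 3T3 cells (400/well) are exposed to compound for 48 or 72 hr at 37 °C, then CellTiter-Glo luminescence is imaged after 10 min at room temperature.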
# On the % scale 0 is the no-effect control and ±100 the full control effect; potency means the concentration at half of the fitted maximal effect; tags describe the fitted curve by direction and shape.
Structure (SMILES),Potency,"activity change, negative = cytotoxicity",outcome
Cn1nc(-c2ccccc2)cc1[C@H]1CN2CC[C@H]1C[C@@H]2CNC(=O)c1cccs1,"inconclusive: 126 µM [inhibitor, single point]",,
CN1CCNc2cc(NCc3ccccc3)ncc2C1,active: 89.1 µM,,
O=C(NC[C@H]1C[C@@H]2CCN1C[C@@H]2CN1CCN(c2ccc(F)cc2)CC1)Nc1ccsc1,"inconclusive: 44.7 µM [inhibitor, partial curve, poor fit]",,
COc1cc2c(cc1Oc1ccccc1)NC(=O)C21CCN(C(=O)c2cccc(O)c2)CC1,"inconclusive: 44.7 µM [inhibitor, partial curve, poor fit]",,
Cc1nc(-c2ccco2)cc([C@H]2CN3CC[C@H]2C[C@@H]3CNC(=O)Nc2ccccc2)n1,"inconclusive: 100 µM [inhibitor, partial curve, poor fit]",,
O=C(NC1CC1)[C@H]1CN2CC[C@H]1C[C@@H]2Cn1cc(CO)nn1,,inactive: 2.34% [at 174 µM],
C#C[C@H]1CN2CC[C@H]1C[C@@H]2CNS(=O)(=O)c1ccc2ccccc2c1,"inconclusive: 126 µM [inhibitor, partial curve, poor fit]",,
CCOC(=O)[C@H]1CN(C(=O)c2ccc(OC)cc2)[C@]2(C)C(=O)N(CC3CC3)c3ccccc3[C@H]12,"inconclusive: 31.6 µM [inhibitor, partial curve, poor fit]",,
Cc1nc(-c2ccc(C(F)(F)F)cc2)cc([C@H]2CN3CC[C@H]2C[C@@H]3CNC(=O)C2CCC2)n1,active: 20 µM,,
Cc1ncccc1C(=O)N1[C@H]2CC[C@@H]1c1cnc(-c3ccc(F)cc3)nc1C2,"inconclusive: 20 µM [inhibitor, partial curve, poor fit]",,
CNCc1cn(C[C@H]2CC3CCN2C[C@@H]3C(=O)NCc2ccccc2)nn1 (stereo partly drawn),"inconclusive: 126 µM [inhibitor, single point]",,
O=C(COc1ccccc1)N1[C@H]2CC[C@@H]1c1cnc(-c3ccc(F)cc3)nc1C2,"inconclusive: 7.94 µM [inhibitor, full curve, poor fit]",,
COc1ccc(C(=O)N2[C@H]3CC[C@@H]2c2cnc(C)nc2C3)c(OC)c1,,inactive: -10.1%,
CN1CC2CN(C(=O)c3ccsc3)CC(C1)O2,"inconclusive: 70.8 µM [inhibitor, single point]",,
CC[C@H]1CN2CC[C@H]1C[C@@H]2COC(=O)Nc1cccc2ccccc12,active: 50.1 µM,,
Cc1nc(C)c(C(=O)N2[C@H]3CC[C@@H]2c2cnc(-c4ccccc4)nc2C3)s1,"inconclusive: 22.4 µM [inhibitor, full curve]",,
CCn1ccc(C(=O)N2CCC3(CC2)c2nccn2-c2ccccc2CN3CC(C)C)n1,"inconclusive: 70.8 µM [inhibitor, single point]",,
COc1cc2c(cc1-c1cnn(C)c1)NC(=O)C21CCN(C(C)=O)CC1,active: 31.6 µM,,
CC(=O)NC[C@H]1C[C@@H]2CCN1C[C@@H]2c1cc(-c2cccs2)nn1C,"inconclusive: 126 µM [inhibitor, single point]",,
C#CCN1C(=O)[C@@H]2[C@H](c3ccccc31)[C@@H](C(=O)OCC)[C@@H](c1ccccc1)N2C(=O)c1ccco1,"inconclusive: 39.8 µM [inhibitor, partial curve]",,
Cc1nc(-c2cccs2)cc([C@H]2CN3CC[C@H]2C[C@@H]3CNS(=O)(=O)c2ccccc2)n1,active: 20 µM,,

Structure (SMILES),Potency,"activity change, negative = cytotoxicity",outcome
COc1ccccc1N1CCN(C[C@H]2CN3CC[C@H]2C[C@@H]3CNC(=O)c2ccc3c(c2)OCO3)CC1,"inconclusive: 89.1 µM [inhibitor, partial curve, poor fit]",,
Cn1nc(-c2ccc3ccccc3c2)cc1[C@H]1CN2CC[C@H]1C[C@@H]2CNC(=O)COc1ccccc1,active: 28.2 µM,,
COc1cc2c(cc1OCC1CC1)NC(=O)C21CCN(C(=O)Cc2ccccc2)CC1,"inconclusive: 56.2 µM [inhibitor, partial curve, poor fit]",,
CC(C)N1CC2CCC(C1)N2C(=O)c1ccncc1,,inactive: 2.27% [at 138 µM],
COc1cc2c(cc1OC1CCCC1)NC(=O)C21CCN(Cc2nccn2C)CC1,,inactive: -14.3% [at 138 µM],
CN(C)C(=O)[C@H]1CN2CCC1C[C@@H]2Cn1cc(CSc2ccccc2)nn1 (stereo partly drawn),"inconclusive: 35.5 µM [inhibitor, partial curve, poor fit]",,
Cc1nonc1CC(=O)N1C[C@H](O)[C@@H](N2CCC(O)CC2)C1,,inactive: -14.8%,
Cn1cc(C(=O)N2[C@H]3CC[C@@H]2c2cnc(-c4ccccc4)nc2C3)cn1,"inconclusive: 25.1 µM [inhibitor, partial curve]",,
COc1cc2c(cc1OCC1CC1)NC(=O)C21CCN(CCC(C)C)CC1,"inconclusive: 79.4 µM [inhibitor, partial curve, poor fit]",,
COc1cc2c(cc1OCc1ccccc1)NC(=O)C21CCN(C(=O)c2cccnc2)CC1,"inconclusive: 11.2 µM [inhibitor, partial curve, poor fit]",,
c1cncc(C2=NOC3(CCCN(CC4CCCC4)C3)C2)c1 (stereo not drawn),,,inactive
N#Cc1ccccc1S(=O)(=O)N1C[C@@H]2C[C@H](C1)c1ccc(-c3ccc(Cl)cc3)c(=O)n1C2,"inconclusive: 44.7 µM [inhibitor, partial curve]",,
COc1ccc(-c2cc([C@H]3CN4CC[C@H]3C[C@@H]4CNC(=O)COc3ccccc3)n(C)n2)cc1,"inconclusive: 89.1 µM [inhibitor, partial curve, poor fit]",,
CC(C)NC(=O)NC[C@H]1C[C@@H]2CCN1C[C@@H]2CN(C)c1ccccc1,,inactive: -18.9% [at 174 µM],
COc1ccc(-c2cc([C@H]3CN4CC[C@H]3C[C@@H]4CNS(=O)(=O)c3ccc(Cl)cc3)n(C)n2)cc1OC,"inconclusive: 10 µM [inhibitor, full curve, poor fit]",,
Cc1nc(-c2ccccc2)cc([C@H]2CN3CC[C@H]2C[C@@H]3CNS(C)(=O)=O)n1,"inconclusive: 100 µM [inhibitor, partial curve, poor fit]",,
CC[C@H]1CN2CC[C@H]1C[C@@H]2CNCc1ccc(OC)cc1,,inactive: -24% [at 230 µM],
COc1ccc(-c2cc([C@H]3CN4CC[C@H]3C[C@@H]4CNS(=O)(=O)c3ccccc3)n(C)n2)cc1OC,"inconclusive: 28.2 µM [inhibitor, partial curve, poor fit]",,
Cc1ncc2c(n1)C[C@@H]1CC[C@H]2N1C(=O)NCCc1ccccc1,,,inactive
C#C[C@H]1CN2CC[C@H]1C[C@@H]2CNS(=O)(=O)c1ccc(Cl)cc1,,inactive: -24.6% [at 174 µM],
O=C(Cc1cccc(Cl)c1)N1CCN(Cc2ccccc2-c2ccccc2F)CC1,"inconclusive: 44.7 µM [inhibitor, partial curve, poor fit]",,

Structure (SMILES),Potency,"activity change, negative = cytotoxicity",outcome
COc1cc2c(cc1OCc1ccccc1)N(C(=O)c1cccc3[nH]ccc13)CC21CCN(C)CC1,active: 20 µM,,
FC(F)(F)CN1C2CCC1CN(c1ncc(Br)cn1)C2,,,inactive
COc1cc2c(cc1OC1CCCC1)NC(=O)C21CCN(C(=O)Cc2ccccc2)CC1,active: 89.1 µM,,
CCN1CCCCC12Cc1ccccc1CN(C(=O)Cc1ccc(O)cc1)C2 (stereo not drawn),,inactive: -7.44%,
Cc1ccccc1-c1ccc2n(c1=O)C[C@H]1C[C@@H]2CN(C(=O)Nc2cccc(F)c2)C1,,inactive: -5.7% [at 174 µM],
COc1cncc(CN2CCC3(CC2)C(=O)Nc2cc(OC4CCCC4)c(OC)cc23)c1,"inconclusive: 56.2 µM [inhibitor, partial curve, poor fit]",,
COc1cc2c(cc1Oc1ccccc1)NC(=O)C21CCN(c2cnccn2)CC1,"inconclusive: 56.2 µM [inhibitor, partial curve, poor fit]",,
O=C(NCc1ccccc1)[C@H]1CN2CCC1C[C@@H]2Cn1cc(CSc2ccccc2)nn1 (stereo partly drawn),,inactive: -34.5%,
COCCN1C(=O)CO[C@H]2CN(C(C)C)C[C@H]21,,inactive: -13.4% [at 230 µM],
CC[C@H]1CN2CC[C@H]1C[C@@H]2CNCc1cc2ccccc2o1,"inconclusive: 100 µM [inhibitor, partial curve, poor fit]",,
COc1cc2c(cc1OC1CCCC1)NC(=O)C21CCN(c2cnccn2)CC1,"inconclusive: 100 µM [inhibitor, partial curve]",,
CCN1CCCCC12Cc1ccccc1CN(C(=O)Cc1ccc(OC)cc1)C2 (stereo not drawn),,inactive: 3.75%,
COc1cc2c(cc1Oc1cccc(N(C)C)c1)NC(=O)C21CCN(CC2CC2)CC1,active: 79.4 µM,,
COc1ccccc1-c1cc([C@H]2CN3CC[C@H]2C[C@@H]3CNC(=O)c2cccs2)n(C)n1,,inactive: -24.2%,
CC(=O)N1CC2(CCN(Cc3ccccn3)C2)Cc2ccccc21 (stereo not drawn),,,inactive
COc1ccccc1-c1cc([C@H]2CN3CC[C@H]2C[C@@H]3COC(=O)Nc2ccccc2)nc(C)n1,"inconclusive: 89.1 µM [inhibitor, single point]",,
C=C[C@H]1CN2CC[C@H]1C[C@@H]2CNS(=O)(=O)c1ccc(C)cc1,,inactive: -0.89% [at 174 µM],
COc1ccc(C(=O)NC[C@H]2C[C@@H]3CCN2C[C@@H]3c2cc(-c3ccc4ccccc4c3)nn2C)cc1,"inconclusive: 20 µM [inhibitor, full curve, poor fit]",,
C#CCN(C)C[C@H]1CN2CC[C@H]1C[C@@H]2CNC(=O)Nc1ccc(OC)cc1,,,inactive [at 174 µM]
CC(C)(C)c1ccc(-c2cn(C[C@H]3CC4CCN3C[C@@H]4C(=O)NCc3ccccc3)nn2)cc1 (stereo partly drawn),"inconclusive: 79.4 µM [inhibitor, single point]",,
CN1CCN(C(=O)Cc2c[nH]c3ncc(-c4ccccc4Oc4ccccc4)cc23)CC1,"inconclusive: 50.1 µM [inhibitor, partial curve, poor fit]",,
